Data: paper PMC12747267 (bioRxiv, 2025)

Target: the molecule itself
Test: cryo-EM structure

B1: human nonmuscle myosin-2B (NM2B) heavy chain (natural protein)
chain: not shown
B1: binds.
